Laboratory results reported in paper PMC4336329 (PLoS ONE, 2015).
Hit rate of the full screen: of about 310,000 compounds, about 2,200 (0.71%) showed an effect of 50% or more. The effect is printed as a negative number. This is one part of the list.

Target: human ether-à-go-go-related gene (hERG) potassium channel (human, UniProt Q12809)
Assay: primary screen, population patch clamp on CHO cells stably expressing hERG

human ether-à-go-go-related gene (hERG) potassium channel, sequence (Q12809 whole entry, looked up): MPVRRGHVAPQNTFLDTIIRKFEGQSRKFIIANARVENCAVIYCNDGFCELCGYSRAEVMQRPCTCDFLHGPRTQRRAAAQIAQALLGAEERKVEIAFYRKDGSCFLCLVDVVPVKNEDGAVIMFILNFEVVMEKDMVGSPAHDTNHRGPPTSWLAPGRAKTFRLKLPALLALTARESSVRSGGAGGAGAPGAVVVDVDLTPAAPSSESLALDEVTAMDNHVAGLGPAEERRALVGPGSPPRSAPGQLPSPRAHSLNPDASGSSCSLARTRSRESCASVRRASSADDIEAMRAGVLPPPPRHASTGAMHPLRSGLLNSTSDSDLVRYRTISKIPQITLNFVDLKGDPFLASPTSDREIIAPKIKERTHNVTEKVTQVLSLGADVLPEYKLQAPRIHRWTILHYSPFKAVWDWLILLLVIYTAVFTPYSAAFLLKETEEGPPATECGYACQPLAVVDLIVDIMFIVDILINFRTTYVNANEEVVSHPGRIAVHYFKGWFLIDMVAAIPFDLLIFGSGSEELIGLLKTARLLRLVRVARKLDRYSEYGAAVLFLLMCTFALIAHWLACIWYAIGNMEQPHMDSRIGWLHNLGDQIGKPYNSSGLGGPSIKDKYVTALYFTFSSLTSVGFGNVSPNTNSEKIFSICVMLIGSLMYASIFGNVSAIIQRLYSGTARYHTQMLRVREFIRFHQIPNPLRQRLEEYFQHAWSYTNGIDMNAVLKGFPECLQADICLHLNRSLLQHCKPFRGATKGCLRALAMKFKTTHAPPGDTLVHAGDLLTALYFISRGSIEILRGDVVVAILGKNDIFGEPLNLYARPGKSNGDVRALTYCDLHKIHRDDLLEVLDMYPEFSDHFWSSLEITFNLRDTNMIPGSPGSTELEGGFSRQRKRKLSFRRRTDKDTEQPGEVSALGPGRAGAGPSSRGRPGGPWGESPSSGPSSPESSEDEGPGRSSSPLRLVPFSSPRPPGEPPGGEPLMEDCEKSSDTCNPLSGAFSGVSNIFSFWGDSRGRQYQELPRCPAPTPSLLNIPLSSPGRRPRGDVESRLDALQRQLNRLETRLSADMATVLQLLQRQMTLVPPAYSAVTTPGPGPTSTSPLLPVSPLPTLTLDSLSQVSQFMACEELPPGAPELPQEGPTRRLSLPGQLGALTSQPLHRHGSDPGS

SMILES	hERG current change (%, negative = inhibition) at 1uM
COc1cc(C2C(C(C)=O)=C(O)C(=O)N2CCN2CCOCC2)ccc1O (stereo not shown)	7%
Cc1ccc(S(=O)(=O)c2nnn3c2nc(N2CCC(C(N)=O)CC2)c2ccccc23)cc1	9.94%
CN(C)CCN1C(=O)c2ccccc2C1=O	10%
COc1cccc(NC(=O)CN(C)C(=O)CCCNC(=O)c2ccc(Cl)cc2)c1	-5.92%
CC[C@@H](C)C(N)c1cn([C@@H](CCC(=O)O)C(=O)N2CCNCC2)nn1.Cl (stereo partly shown)	10.2%
COc1ccc(C(=O)NC2=C(C#N)CCC2)cc1OC	5.99%
O=C(NNS(=O)(=O)c1ccccc1F)c1cccc(S(=O)(=O)N2CCOCC2)c1	5.57%
COc1ccc(N2CCN(C(=O)c3ccc(CNc4c(N5CCOCC5)c(=O)c4=O)cc3)CC2)cc1	9.32%
CCOC(=O)C1(CCOC)CCN(Cc2ccc(COC)o2)CC1	21.7%
COc1ccc(SCCc2ccncc2)cc1.Cl	1.8%
Cc1ccccc1N1CCN(C(=O)c2ccccc2NC(=O)c2ccccc2C(=O)O)CC1	13.1%
COc1ccc2cc(C(=O)NCc3ccccc3)[nH]c2c1.Cl	10.1%
COc1ccc2oc(=O)c(C(=O)NCc3ccccn3)cc2c1	1.74%
CC(=O)c1c(C)[nH]c(C(=O)OCCCCN2C(=O)c3ccccc3C2=O)c1C	8.72%
COC(=O)c1cc(OC)c(OC)cc1NC(=S)N1CCCCC1	-2.5%
CCNC(=O)C1CN(S(=O)(=O)c2ccccc2)CCN1S(=O)(=O)c1ccccc1 (stereo not shown)	8.46%
O=C(CNC(=O)N1CC(=O)Nc2ccccc21)NCc1ccc(Cl)cc1	14.3%
Cc1ccc(S(=O)(=O)N2CCN(C(=O)c3cc4c(C)nn(-c5ccccc5C)c4s3)CC2)cc1	-2.25%
CCOCCCNc1c2c(nc3cc(-c4ccc(F)cc4)nn13)CCC2	11%
Br.CCn1c(=N)n(CC(=O)C23CC4CC(CC(C4)C2)C3)c2ccccc21	-6.65%
CCOc1ccc(NC(=O)C2CC(=O)N(CC)C(=Nc3ccc4c(c3)OCO4)S2)cc1 (stereo not shown)	16.2%
CN1C(=O)C(=Cc2ccc(SC3CCCCC3)o2)C(=O)N(C)C1=O	6.95%

SMILES	hERG current change (%, negative = inhibition) at 1uM
Cc1ccc(Oc2nn[nH]n2)cc1	3.02%
Cc1ccc(S(=O)(=O)N2CCN(S(C)(=O)=O)C2c2ccccc2)cc1 (stereo not shown)	1.31%
Cc1cc(C)c(C)c(OCCOCCN2CCN(C)CC2)c1	12.3%
CCn1nc(C)c(NS(=O)(=O)c2ccccc2)c1C	10.8%
Cc1c(C)n(C)c2ccc(C(=O)N3CCN(c4ccccn4)CC3)cc12	7.44%
CSc1nsc(NC(=O)Nc2ccccc2)n1	10.3%
O=C(O)c1ccc(S(=O)(=O)Nc2ccc(F)c(Cl)c2)cc1	12%
Cc1cccc2cc(CN(Cc3cccnc3)C(=O)c3ccccc3F)c(Cl)nc12	-2.26%
O=c1ccnc(Nc2ccc(Cl)cc2)[nH]1	3.38%
O=C(Cn1ncn2c(cc3ccccc32)c1=O)NCc1ccco1	7.29%
CCOc1cccc(CNCCc2c(C)[nH]c3ccc(OC(F)(F)F)cc23)c1O.O=C(O)C(=O)O	-4.67%
CCOC(=O)c1cnc(SCC)[nH]c1=O	-6.55%
CC(Oc1ccc2ccc(=O)oc2c1)C(=O)NCC1CCC(C(=O)O)CC1 (stereo not shown)	-8.59%
Cc1cccc(OCC(=O)Nc2c3c(nn2C(C)(C)C)CS(=O)(=O)C3)c1	5.09%
CCCCn1c(N)c(C(=O)OCCOC)c2nc3ccccc3nc21	-12.1%
CCN1C(=O)[C@@H]2[C@H](C1=O)[C@@H]1CC(C(=O)OC)=C[C@@H](C(=O)OC)C3C1=C(C(=O)C3(CC)CC)[C@@H]2C (stereo partly shown)	7.97%
COC(=O)/C(=C/c1ccc(OC)cc1)NC(=O)c1ccco1	5.8%
Cl.O=C(NCCN1CCN(c2ccccc2)CC1)c1cccc(Cl)c1	0.892%
COc1ccc(C(=O)Nc2nnc(Cc3ccc(OC)c(OC)c3)s2)c(OC)c1	1.12%
Br.CCCc1cc(-c2nc(-c3ccc(Br)cc3)cs2)ccn1	13.9%
C=CCN(CC=C)C(=S)NC(=O)c1ccc(OC)cc1	16.7%
Cc1ccc(S(=O)(=O)Nc2cc3c(cc2N2CCOCC2)n(C)c(=O)c(=O)n3C)cc1	-1.36%

SMILES	hERG current change (%, negative = inhibition) at 1uM
Cn1cc(S(=O)(=O)N2CCN(c3cccc(C(F)(F)F)c3)CC2)c(=O)n(C)c1=O	-2.59%
Cn1cc([N+](=O)[O-])cc1-c1nc2ccccc2n1C	12.6%
CC(=O)c1cccc(NC(=O)c2csc3c2CCCCC3)c1	6.78%
Nc1c(N(CCC2=CCCCC2)C(=O)Cc2ccccc2F)c(=O)[nH]c(=O)n1Cc1ccccc1	9.71%
CCn1nc(C(=O)NNC(=O)COc2ccccc2C)c2ccccc2c1=O	-3.29%
NC(=O)C1CCN(C(=O)c2cc(S(=O)(=O)N3CCOCC3)c(Cl)cc2Cl)CC1	14%
O=C(NCCO)c1ccccc1O	15.7%
Cc1ccc(S(=O)(=O)N2CC=C(C(=O)NCc3ccccc3)CC2)cc1	-4.37%
O=C(NCc1ccccn1)[C@H]1C[C@@H]1[C@H](NP(=O)(c1ccccc1)c1ccccc1)c1ccccc1	7.04%
Cc1ccc(CNC(=O)CCCOc2cc(=O)n(C)c3ccccc23)o1	1.41%
CC(=O)c1ccc(N2CCN(Cc3nc4ccccc4[nH]3)CC2)cc1	-2.21%
O=C(/C=C/c1ccccc1)NC(=S)Nc1ccccc1	14.8%
COc1ccc(/C=C(/C#N)C(=O)Nc2ccccc2C)cc1C(=O)O	16%
O=C(COc1ccc2ccccc2c1Br)N1CCCC1	9.68%
COc1ccc(NC(=O)Cn2nnc(C(=O)Nc3ccc(F)c(Cl)c3)c2N)cc1	14.9%
CCN(CC)S(=O)(=O)c1ccc(NC(=O)c2ccc(Cl)nc2)cc1	3.43%
COC(=O)c1ccsc1NC(=O)CCS(=O)(=O)c1ccccc1	14.5%
CCc1ccccc1NC(=O)C1CCN(C(=O)c2cccs2)CC1	3.75%
COc1ccc(C2NC(c3ccc(OC)c(OC)c3OC)C(C)C(=O)C2C)c(OC)c1OC.Cl (stereo not shown)	17%
COc1ccc(CN2CC(C(=O)NCCc3ccc(Cl)cc3)CC2=O)cc1 (stereo not shown)	0.596%
COc1ccc(OC)c(Nc2nc(NCc3ccco3)c3ccccc3n2)c1.Cl	9.92%
COC(=O)C1=C(C)NC(=O)C1(NC(=O)c1ccncc1)C(F)(F)F (stereo not shown)	0.652%

SMILES	hERG current change (%, negative = inhibition) at 1uM
COc1ccc(N2CCN(C(=O)c3ccc(NS(=O)(=O)c4ccccc4)cc3)CC2)cc1	-7.23%
Cc1ccc(CCNC(=O)C2CCN(C(=O)N(C)C)CC2)cc1	13%
CCOC(=O)N1CCN(C(=O)c2ccc(N(C)S(=O)(=O)c3ccc(C)cc3)cc2)CC1	0.198%
COc1cc(C2CC(=O)c3cnc(NC(=O)COc4ccccc4)nc3C2)cc(OC)c1OC (stereo not shown)	7.43%
Cc1ccc2nc(SCC(=O)Nc3ccc4c(c3)OCCO4)nc(=O)n2c1	5.61%
CN1CCCN(C(=O)C2CCC(C(=O)N3CCCN(C)CC3)CC2)CC1.Cl (stereo not shown)	5.69%
CC(=O)Nc1ccc(S(=O)(=O)Nc2nccc(/C=C/c3ccccc3F)n2)cc1	10.8%
N#CCCN(C(=O)CSc1ccc2c(c1)OCCO2)c1ccc(F)cc1	5.84%
CSc1n[nH]c(-c2ccc(C(F)(F)F)cc2)n1	15.1%
CCN(CCn1cccn1)C(=O)c1cc(COc2ccc(F)c(F)c2)on1	-27.1%
CCCC(=O)c1ccc(N2CCN(C(=O)c3ccc(Br)cc3)CC2)c(F)c1	9.18%
Cl.O=C(CSc1nc2cc(Cl)ccc2o1)Nc1ccc(N2CCOCC2)cc1	-2.94%
COc1ccc(CC(=O)NC2CC2)cc1OC	15.6%
COC(=O)[C@H](C)NC(=O)Nc1ccc(OC(F)(F)F)cc1	17.9%
C1CCC(CNc2c3c(nc4nnnn24)CCCC3)CC1	9.98%
Cn1c(=O)c2ccccc2n(CC(=O)NC2CCCCC2)c1=O	13.3%
COc1cccc(NC(=O)C2CCN(c3ncccn3)CC2)c1	-1.64%
Cc1cccc(NC(=O)c2ccccc2NC(=O)c2ccccc2)n1	9.95%
COc1ccc(N2CCC(CNC(=S)Nc3c(C)cc(C)cc3C)C2)cc1 (stereo not shown)	3.98%
CCN(CCNCC(O)COc1ccccc1C(C)C)c1cccc(C)c1.O=C(O)C(=O)O (stereo not shown)	5.11%
CC1CCCCC1NC(=O)Cc1ccc(S(=O)(=O)N2CCOCC2)s1 (stereo not shown)	-8.81%
COc1cc(NC(=O)c2cccc(C)c2)c(OC)cc1NC(=O)CN1CCCCC1	5.58%
